# Measurements taken from article PMC3868573.
# No constants are given. Whether binding was seen depends on the method and setting. Binding seen in cells or lysates may run through a third protein. Some entries that bind do so weakly or less than the wild type. Tags and fused reporters may be left off the sequences shown.
# Target: myc-tagged wild-type human APOBEC3G (human), Q9HC16
# Test: co-IP; 293T cells co-transfected with HA-tagged wild-type or mutant hA3G and hA3G-myc; lysed after 48 h in RIPA buffer (50 mM Tris-HCl pH 7.4, 150 mM NaCl, 1% NP-40, 0.5% sodium deoxycholate, 0.1% SDS); anti-myc affinity gel 1 h at 4°C; blot with anti-HA; wild-type immune complexes also with or without 25 U RNase A
# Conditions: remark: other sources report otherwise
binder,measurement,value
"HA-tagged wild-type human APOBEC3G, Q9HC16 1-384 (protein) MKPHFRNTVERMYRDTFSYNFYNRPILSRRNTVWLCYEVKTKGPSRPPLDAKIFRGQVYSELKYHPEMRFFHWFSKWRKLHRDQEYEVTWYISWSPCTKCTRDMATFLAEDPKVTLTIFVARLYYFWDPDYQEALRSLCQKRDGPRATMKIMNYDEFQHCWSKFVYSQRELFEPWNNLPKYYILLHIMLGEILRHSMDPPTFTFNFNNEPWVRGRHETYLCYEVERMHNDTWVLLNQRRGFLCNQAPHKHGFLEGRHAELCFLDVIPFWKLDLDQDYRVTCFTSWSPCFSCAQEMAKFISKNKHVSLCIFTARIYDDQGRCQEGLRTLAEAGAKISIMTYSEFKHCWDTFVDHQGCPFQPWDGLDEHSQDLSGRLRAILQNQEN",binding,binds
